# Out of some 200,000 compounds screened, about 4,500 (2.2%) were called active. The inconclusive results got no clear call from the source; some entries with a clear call stand among them for comparison. Calls follow the shape of the dose curve; as a rule, active = well fitted inhibition curve with a large enough effect; inconclusive = small, poorly fitted or top-dose-only effect, or effect the other way; inactive = flat fitted curve, though single readings scatter. Potencies beside an inconclusive call are fits to weak or partial responses and may not hold up.
# Target: Cruzipain (Trypanosoma cruzi) (UniProt P25779)
# Assay: qHTS Assay for Promiscuous and Specific Inhibitors of Cruzain (without detergent); also: nearly all actives have a fitted effect of over 40% in size;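 as to max response, negative = inhibition: plate controls were enzyme without inhibitor for no effect and buffer without enzyme for full effect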
# Details: purified cruzain, Z-FR-AMC fluorescence, no detergent
# In short: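 Detergent-free condition (0.00005% Triton X-100) in acetate buffer pH 5.5 with DTT. 1.5 nM enzyme and compound were pre-mixed 15 min, then 2 uM Z-FR-AMC substrate added; reaction progress from fluorescence change between first and third reads (60 s).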
# Potency is read from the fitted curve at half-maximal effect; tags tell the direction and shape of the fitted curve.
# Sequence of UniProt P25779 (P25779 whole entry, looked up): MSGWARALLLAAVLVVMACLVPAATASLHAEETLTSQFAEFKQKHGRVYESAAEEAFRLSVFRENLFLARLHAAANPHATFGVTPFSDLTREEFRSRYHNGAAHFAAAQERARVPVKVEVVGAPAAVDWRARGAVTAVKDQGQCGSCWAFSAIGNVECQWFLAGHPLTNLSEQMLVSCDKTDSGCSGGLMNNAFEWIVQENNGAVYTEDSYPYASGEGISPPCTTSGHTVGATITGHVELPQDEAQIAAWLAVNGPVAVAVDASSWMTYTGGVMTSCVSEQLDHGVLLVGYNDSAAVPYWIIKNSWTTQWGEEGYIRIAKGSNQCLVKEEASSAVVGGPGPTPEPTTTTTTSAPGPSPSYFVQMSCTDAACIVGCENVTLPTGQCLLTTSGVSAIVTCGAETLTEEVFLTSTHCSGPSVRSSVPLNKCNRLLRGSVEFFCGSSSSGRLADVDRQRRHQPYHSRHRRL
SMILES,Potency,"max response, negative = inhibition"
COc1ccc(-c2nn(-c3ccccc3)cc2/C=N/NC(N)=S)cc1OC,active: 0.631 µM,–
COc1ccc(N2C(=O)CS(=O)(=O)C23C(=O)N(Cc2c(F)cccc2Cl)c2ccccc23)cc1 (stereo not drawn),active: 7.94 µM,–
Cn1c(=O)c2c(nc(SCC(=O)N3CCc4ccccc43)n2Cc2ccccc2)n(C)c1=O,"inconclusive: 39.8 µM [activator, single point]",–
CC(C)CCNC(=O)c1cc(Sc2ccc(F)cc2F)nc2ccccc12,–,inactive: -10.3%
CCNc1ccccc(C(=O)/C=C/c2ccc3c(c2)OCO3)c1=O,"inconclusive: 39.8 µM [activator, single point]",–
Cc1cc(C)c2cc(C(c3nnnn3C3CCCC3)N3CCOCC3)c(=O)[nH]c2c1 (stereo not drawn),"inconclusive: 31.6 µM [inhibitor, single point]",–
Cc1cc(/C=C2/NC(=O)N(Cc3ccccc3F)C2=O)c(C)n1C(C)C,active: 25.1 µM,–
COCCn1c(C)cc(C2=NNC(=Nc3ccccc3F)SC2)c1C,–,inactive: -22.6%
N#CCCn1c(=O)c(-c2ccc(Cl)cc2)nc2cnc(Oc3ccccc3)nc21,–,inactive: 2.23%
CCC(Oc1ccccc1)C(=O)Nc1ccc(OCc2cc(=O)n3ccc(C)cc3n2)cc1 (stereo not drawn),–,inactive: -15.1%
CCCCC(C=O)NC(=O)C(CC(C)C)NC(=O)OCc1ccccc1 (stereo not drawn),active: 0.0025 µM,–
O=S(=O)(NCCc1nnc2ccc(SCc3c(F)cccc3Cl)nn12)c1ccccc1,"inconclusive: 39.8 µM [activator, single point]",–
CCCOc1ccc(NC(=O)CC2C(=O)N(CC)C(=S)N2CCNC(C)=O)cc1 (stereo not drawn),–,inactive: 17%
CCOc1cc2[nH]c(=S)n(CCCCC(=O)NCc3ccco3)c(=O)c2cc1OCC,"inconclusive: 31.6 µM [inhibitor, single point]",–
CCOC(=O)c1c(NC(=O)c2ccco2)n(C2CCCCC2)c2nc3ccccc3nc12,"inconclusive: 31.6 µM [activator, single point]",–
O=C(OCN1C(=O)c2ccccc2C1=O)/C(=C\c1ccco1)NC(=O)c1ccccc1,active: 0.398 µM,–
CC(=O)Oc1cccc(C)c1,–,inactive: -0.707%
O=C(c1ccco1)N1CCN(C(=O)c2cc(-c3ccccn3)nc3ccc(Cl)cc23)CC1,"inconclusive: 25.1 µM [activator, single point]",–
CC(C)Oc1cccc(-c2cc(C(=O)N3CCN(S(C)(=O)=O)CC3)c3ccccc3n2)c1,"inconclusive: 25.1 µM [activator, partial curve]",–
O=C(COc1ccccc1)N1CCN(c2ncnc3c2cnn3-c2ccccc2)CC1,"inconclusive: 39.8 µM [activator, single point]",–
CC(=O)Nc1cc(N=Cc2ccc(O)cc2O)c(Cl)cc1Cl,"inconclusive: 39.8 µM [inhibitor, single point]",–
N#CC(C#N)=NNc1ccc2cn[nH]c2c1,"inconclusive: 3.98 µM [inhibitor, partial curve]",–

SMILES,Potency,"max response, negative = inhibition"
CCn1cc(C(=O)N2CCN(c3ccccc3OC)CC2)c(=O)c2cc(S(=O)(=O)N3CCC(C)CC3)ccc21,"inconclusive: 10 µM [activator, partial curve]",–
CCCNC(=O)c1c(N)n(CC2CCCO2)c2nc3ccccc3nc12 (stereo not drawn),"inconclusive: 25.1 µM [activator, partial curve]",–
Cc1ccc(-c2csc3ncn(CC(=O)N4CCOCC4)c(=O)c23)cc1C,"inconclusive: 39.8 µM [activator, single point]",–
CCN(CC)S(=O)(=O)c1ccc2c(c1)N(CC(=O)NCC(C)c1ccccc1)C(=O)CO2 (stereo not drawn),–,inactive: 13.8%
CCc1ccccc1NC(=O)CN1C(=O)COc2ccc(S(=O)(=O)N3CCCCCC3)cc21,–,inactive: -5.78%
COc1cc(-c2cc(-c3ccccc3)nc(SCC(=O)Nc3nccs3)c2C#N)cc(OC)c1OC,"inconclusive: 39.8 µM [inhibitor, single point]",–
CCC(=O)N1CCc2cc(S(=O)(=O)N(CC)c3cccc(C)c3)ccc21,–,inactive: -23.9%
CCn1nc(C(=O)OCC(=O)c2c[nH]c3ccccc23)c2ccccc2c1=O,"inconclusive: 39.8 µM [inhibitor, single point]",–
COc1ccccc1CNC(=O)c1ccc2c(c1)N(Cc1ccc(C)cc1)CCS2,"inconclusive: 39.8 µM [inhibitor, single point]",–
COc1ccc(/C=C2/N=C(SC3CCOC3=O)N(c3cccc(OC)c3)C2=O)cc1 (stereo not drawn),"inconclusive: 39.8 µM [inhibitor, single point]",–
Cc1ccc(C(=O)CSc2nnc(CNc3nc(-c4ccccc4)cs3)n2C)cc1,"inconclusive: 39.8 µM [inhibitor, single point]",–
ClC/C=C/CCl,–,inactive: -5.27%
Cc1ccc(CSC(N)=Nc2ccccc2)cc1C,–,inactive: -5.57%
CN(Cc1ccccc1)c1ccc(-c2nc(-c3cccnc3)no2)cc1[N+](=O)[O-],active: 25.1 µM,–
Cc1cc(OCCOc2cccc3cccnc23)cc(C)c1Cl,"inconclusive: 3.98 µM [inhibitor, single point]",–
Cc1cc(C)nc(N/N=C/C2=C(N3CCOCC3)C(=C/c3ccccc3)/CC2)n1,"inconclusive: 31.6 µM [activator, single point]",–
CN(C)c1ccc(C(CNS(=O)(=O)c2ccc3ccccc3c2)c2c[nH]c3ccccc23)cc1 (stereo not drawn),"inconclusive: 31.6 µM [inhibitor, single point]",–
Cc1cc(C)n(CC(O)Cn2c3ccccc3c3ccccc32)c(=O)n1 (stereo not drawn),"inconclusive: 39.8 µM [activator, single point]",–
Cc1oc(-c2ccc(Cl)cc2)cc1-c1nn2c(-c3ccoc3C)nnc2s1,–,inactive: 7.18%
Cc1nnc(-c2cccc(Br)c2)c2cn(-c3ccc(Br)cc3)nc12,"inconclusive: 31.6 µM [inhibitor, single point]",–
COC(=O)c1c(NC(=O)COC(=O)c2ccccc2O)sc2c1CCCCC2,"inconclusive: 15.8 µM [inhibitor, partial curve, poor fit]",–

# Reference: PubChem BioAssay AID1476 (National Center for Advancing Translational Sciences (NCATS), 2009)
